Laboratory results as given in paper PMC5892938.
Some of the results follow. At the low end of the ranking the order means little.

biological target: GST-SBP-SLBP (stem-loop binding protein) (UniProt Q14493); assay: targeted RNA Bind-n-Seq; settings: RBNS binding buffer: 25 mM Tris pH 7.5, 150 mM KCl, 3 mM MgCl2, 0.1% Tween, 0.5 mg/mL BSA, 1 mM DTT; 27 nM protein, 750 pM RNA pool; temperature not stated; high values mean tight binding;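 also: DESeq read counts versus GST-SBP nonspecific binding control pulldown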

Row | Sequence | binding signal (log2 fold change)
1 | GGUCACGUCUCAAUCAACUCUAUUUCAGGAGUUUCCUCCUGCUAACUCAACAGCUCGCAGUCAAG | 0.228
2 | GGUCACGUCUCAAUCAACUCAUCGGAGGGGGGGAAAACCCCUUUACCCUCAAUAUCAACAGCUCGCAGUCAAG | -0.228
3 | GGUCACGUCUCAAUCAACUCAUUCUCCAGGGAAAGCCCUGGUAUUUUCAACAGCUCGCAGUCAAG | -0.132
4 | GGUCACGUCUCAAUCAACUCAACAGAGGGGGGGAAAACCCCUUUGCCCUCCACAUCAACAGCUCGCAGUCAAG | -0.464
5 | GGUCACGUCUCAAUCAACUCAAGUCCCAGGGAAAACCCUGGUUUAUUCAACAGCUCGCAGUCAAG | -0.105
6 | GGUCACGUCUCAAUCAACUCUAUAGAGGGGGGGAAAACCCCUUUACCCUCGUCUUCAACAGCUCGCAGUCAAG | -0.53
7 | GGUCACGUCUCAAUCAACUCUUCUUCCAGGGAAAGCCCUGGCUAUGUCAACAGCUCGCAGUCAAG | 0.127
8 | GGUCACGUCUCAAUCAACUCAAUCUCCAGGGAAACCCCUGGUAAACUCAACAGCUCGCAGUCAAG | 0.353
9 | GGUCACGUCUCAAUCAACUCAAUUUCCAGGGAAAACCCUGGCAUAUUCAACAGCUCGCAGUCAAG | 0.0143
10 | GGUCACGUCUCAAUCAACUCAUCUUCCAGGGAAAACCCUGGUAAAUUCAACAGCUCGCAGUCAAG | -0.264
11 | GGUCACGUCUCAAUCAACUCUUCUUCAGGAGUUUUCUCCUGUAAAUUCAACAGCUCGCAGUCAAG | 0.0221
12 | GGUCACGUCUCAAUCAACUCUUCAGAGGGGGGGAAAACCCCUUUGCCCUCAUCUUCAACAGCUCGCAGUCAAG | -0.555
13 | GGUCACGUCUCAAUCAACUCAUCUUCAGGAGUUUCCUCCUGCAUAUUCAACAGCUCGCAGUCAAG | -0.0541
14 | GGUCACGUCUCAAUCAACUCAAUCUCAGGAGUUUACUCCUGUUUUUUCAACAGCUCGCAGUCAAG | 0.00748
15 | GGUCACGUCUCAAUCAACUCUUUUCCAGGAGUUUUCUCCUGUAUAUUCAACAGCUCGCAGUCAAG | 0.0311
16 | GGUCACGUCUCAAUCAACUCAUUCUCCAGGGAAAUCCCUGGUAAACUCAACAGCUCGCAGUCAAG | -0.0121
17 | GGUCACGUCUCAAUCAACUCUUCCUCAGGAGUUUCCUCCUGCAUAUUCAACAGCUCGCAGUCAAG | -0.184
18 | GGUCACGUCUCAAUCAACUCUAUUUCAGGAGUUUACUCCUGUUAAUUCAACAGCUCGCAGUCAAG | -0.0421
19 | GGUCACGUCUCAAUCAACUCACUAGAGGGGGGGAAAACCCCUUUACCCUCACACUCAACAGCUCGCAGUCAAG | -0.339
20 | GGUCACGUCUCAAUCAACUCAUCUCCAGGAGUUUGCUCCUGCUAUCUCAACAGCUCGCAGUCAAG | 0.0466
21 | GGUCACGUCUCAAUCAACUCAUGUCCAGGAGUUUACUCCUGCUAUCUCAACAGCUCGCAGUCAAG | 0.0724
22 | GGUCACGUCUCAAUCAACUCAAGUCCCAGGGAAACCCCUGGUUUAUUCAACAGCUCGCAGUCAAG | -0.363
23 | GGUCACGUCUCAAUCAACUCAUUUCCCAGGGAAAACCCUGGCAAUCUCAACAGCUCGCAGUCAAG | 0.0545
24 | GGUCACGUCUCAAUCAACUCAUUCCCCAGGGAAAGCCCUGGCUUAUUCAACAGCUCGCAGUCAAG | -0.261

Row | Sequence | binding signal (log2 fold change)
25 | GGUCACGUCUCAAUCAACUCUUAGGAGGGGGGGAAAACCCCUUUACCCUCAUCAUCAACAGCUCGCAGUCAAG | -0.0524
26 | GGUCACGUCUCAAUCAACUCAUCUUCCAGGGAAAACCCUGGCUAACUCAACAGCUCGCAGUCAAG | 0.0398
27 | GGUCACGUCUCAAUCAACUCAAUCCCCAGGGAAACCCCUGGCAAAUUCAACAGCUCGCAGUCAAG | 0.0937
28 | GGUCACGUCUCAAUCAACUCUCUCGAGGGGGGGAAAACCCCUUUGCCCUCAAUCUCAACAGCUCGCAGUCAAG | -0.324
29 | GGUCACGUCUCAAUCAACUCAUUUCCCAGGGAAAACCCUGGCAUACUCAACAGCUCGCAGUCAAG | -0.00898
30 | GGUCACGUCUCAAUCAACUCGUCUUCAGGAGUUUUCUCCUGUUUUUUCAACAGCUCGCAGUCAAG | 0.0169
31 | GGUCACGUCUCAAUCAACUCAACUUCAGGAGUUUGCUCCUGUAAUCUCAACAGCUCGCAGUCAAG | -0.225
32 | GGUCACGUCUCAAUCAACUCUUUCGAGGGGGGGAAAACCCCUUUACCCUCUUUAUCAACAGCUCGCAGUCAAG | -0.348
33 | GGUCACGUCUCAAUCAACUCUAUCUCAGGAGUUUCCUCCUGUAUUUUCAACAGCUCGCAGUCAAG | 0.0919
34 | GGUCACGUCUCAAUCAACUCAUGUCCCAGGGAAAUCCCUGGCUUUUUCAACAGCUCGCAGUCAAG | 0.0751
35 | GGUCACGUCUCAAUCAACUCAAUAGAGGGGGGGAAAACCCCUUUACCCUCAUCUUCAACAGCUCGCAGUCAAG | 0.225
36 | GGUCACGUCUCAAUCAACUCAUCUUCAGGAGUUUACUCCUGUUAACUCAACAGCUCGCAGUCAAG | -0.0386
37 | GGUCACGUCUCAAUCAACUCAACAGAGGGGGGGAAAACCCCUUUACCCUCACUCUCAACAGCUCGCAGUCAAG | 0.255
38 | GGUCACGUCUCAAUCAACUCACAAGAGGGGGGGAAAACCCCUUUGCCCUCAAUCUCAACAGCUCGCAGUCAAG | -0.181
39 | GGUCACGUCUCAAUCAACUCAGUCUCAGGAGUUUGCUCCUGUAUAUUCAACAGCUCGCAGUCAAG | 0.0038
40 | GGUCACGUCUCAAUCAACUCAUCUUCCAGGGAAACCCCUGGUAAUUUCAACAGCUCGCAGUCAAG | -0.198
41 | GGUCACGUCUCAAUCAACUCUACAGAGGGGGGGAAAACCCCUUUACCCUCACUAUCAACAGCUCGCAGUCAAG | 0.238
42 | GGUCACGUCUCAAUCAACUCAAUUUCAGGAGUUUUCUCCUGUUAAUUCAACAGCUCGCAGUCAAG | 0.122
43 | GGUCACGUCUCAAUCAACUCCCAAGAGGGGGGGAAAACCCCUUUACCCUCCAAAUCAACAGCUCGCAGUCAAG | -0.0211
44 | GGUCACGUCUCAAUCAACUCAACUUCCAGGGAAAUCCCUGGCGUAUUCAACAGCUCGCAGUCAAG | 0.0255
45 | GGUCACGUCUCAAUCAACUCAUCCCCCAGGGAAAACCCUGGCAUACUCAACAGCUCGCAGUCAAG | 0.251
46 | GGUCACGUCUCAAUCAACUCUUUCUCAGGAGUUUACUCCUGUAUACUCAACAGCUCGCAGUCAAG | -0.0154
47 | GGUCACGUCUCAAUCAACUCGUUUUCAGGAGUUUACUCCUGCAUUCUCAACAGCUCGCAGUCAAG | -0.0417
